Source: PubChem BioAssay AID686978 (National Center for Advancing Translational Sciences (NCATS), 2013)
Hit rate of the full screen: of about 420,000 compounds, about 64,000 (15%) were called active. Inconclusive means that the source gave no clear call. Such entries were picked first, then a sample of the others. The call rests on the fitted dose curve; in most records, active means well fitted inhibition curve with a large enough effect; inconclusive means small, poorly fitted or top-dose-only effect; inactive means flat fitted curve, though single readings scatter. No potency is given beside an inconclusive call; the fits are too rough.

Assay: qHTS for Inhibitors of human tyrosyl-DNA phosphodiesterase 1 (TDP1): qHTS in cells in absence of CPT; further: nearly all actives have a fitted effect of over 55% in size
Conditions: DT40 Tdp1-/- hTDP1 cells, no CPT, ATP luminescence, 48 h; activity change, negative = growth inhibition: at 46.2 µM (top of the series) unless noted
How it was run: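 Luminescent ATP content (CellTiter-Glo) served as the growth readout. Knockout chicken DT40 cells expressing human TDP1 were exposed to compounds without camptothecin for a minimum 48 hr at 37 °C.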
On the % scale 0 is the no-effect control and ±100 the full control effect; potency means the concentration at half of the fitted maximal effect; tags describe the fitted curve by direction and shape.

Structure (SMILES)	Potency	activity change, negative = growth inhibition
CCC(C)N(CC(=O)Nc1cccc(C)c1C)C(=O)CCl (stereo not given)	active: 2.31 µM	
CC(=O)c1c(OC(=O)c2cccc(Cl)c2)c2ccccc2n1C	inconclusive [inhibitor, single point]	
O=C(NCC1OCCCN1S(=O)(=O)c1ccc(F)cc1)C(=O)NC1CCCC1 (stereo not given)		inactive: -25.3%
COc1ccc(-c2coc3cc(O)ccc3c2=O)c(O)c1O	inconclusive [inhibitor, single point]	
NS(=O)(=O)c1ccc(NC(=S)NC(=O)c2cccs2)cc1		inactive: -24.9%
COc1ccc(OCCOC(=O)C(C)NS(=O)(=O)c2ccc(NC(C)=O)cc2)cc1 (stereo not given)	inconclusive [inhibitor, single point]	
Cc1cc(C(=O)NC2CCCc3c2cnn3-c2cc(F)cc(F)c2)nn1C (stereo not given)	inconclusive [inhibitor, single point]	
COc1ccccc1-c1ccc(C(=O)NCCN2CCOCC2)c(N2CCN(c3ccccc3F)CC2)n1		inactive: -24%
COc1ccccc1CNC(=O)C1CCN(c2nn3c(=O)cc(C)nc3s2)CC1		inactive: 2%
COC(=O)[C@@]12C[C@@H](CC(=O)N3CCCC3)C(=O)N(CCc3ccc(OC)c(OC)c3)C1=CCC(C)(C)C2	inconclusive [inhibitor, single point]	
CSc1nc2nc(Cl)c(Cl)nc2[nH]1	inconclusive [inhibitor, single point]	
CCC(c1nnnn1CCc1ccccc1)N1CCN(c2ccc(OC)cc2)CC1 (stereo not given)	inconclusive [inhibitor, single point]	
CC(=O)Nc1ccc(Nc2c3c4c(cccc4n(C)c2=O)C(=O)c2ccccc2-3)cc1	inconclusive [inhibitor, partial curve]	
COc1ccc(/C=C2\SC(=S)N(CCC(=O)Nc3cccc(O)c3)C2=O)cc1OC		inactive: -20.6%
O=C(NCc1ccccc1Cl)C(=O)NCC(c1ccco1)S(=O)(=O)c1cccs1 (stereo not given)	active: 16.4 µM	
COc1cc(OC)c(N(C)S(=O)(=O)c2cccc(C(=O)OCC(=O)NCc3ccco3)c2)cc1Cl	inconclusive [inhibitor, single point]	
COC(=O)CC/C(O)=C1\C(=O)CC(C)(C)CC1=NCCc1nc2ccccc2[nH]1	inconclusive [inhibitor, single point]	
COc1ccccc1CN1CCOc2ccc(C(C)(O)COc3ccccc3)cc2C1 (stereo not given)		inactive: -26.5%
Cc1ccc(C(=O)NCC(=O)NCC(=O)OCC(=O)c2ccc(Br)cc2)cc1		inconclusive: -16.4% [inhibitor]
Cc1[nH]n2c(=O)c(C#N)c(-c3ccccc3)nc2c1-c1ccccc1		inactive: -11.4%
CCC1CCCCN1CCCNC(=O)c1ccc2c(c1)N(Cc1cccc(C)c1)C(=O)c1ccccc1S2(=O)=O (stereo not given)	inconclusive [inhibitor, single point]	
Cc1c2cnn(CC(=O)NCCc3ccccc3)c(=O)c2c(C)n1Cc1ccccc1Cl	inconclusive [inhibitor, single point]	
CC(C)(C)NC(=O)Cn1c(SCC(=O)N2CCCCCC2)nc2ccccc21		inactive: -18.2%
Cc1ccc(S(=O)(=O)N2C[C@@H]3CCCC[C@@H]3[C@@H](C)[C@H]2c2cn(Cc3ccccc3)c3ncccc23)cc1	inconclusive [inhibitor, single point]	

Structure (SMILES)	Potency	activity change, negative = growth inhibition
CCSc1ccc([C@@H]2[C@@H]3C(=O)N(CC)C(=O)[C@@H]3[C@]3(C(=O)OC)CCCCN23)cc1	active: 23.1 µM	
CCC1CCCCN1CCCNC(=O)c1cc2c(Cl)nc3ccc(C)cc3c2s1 (stereo not given)	active: 4.61 µM	
Cc1ccc(S(=O)(=O)N2C[C@]3(O)C[C@@H]4C(=O)N(c5ccccc5)C(=O)[C@@H]4C[C@]3(OC(=O)NCC3CCCCC3)C2)cc1		inactive: 4.12%
COc1cc2nc(N3CCN(C)CC3)nc(NC3CC3)c2cc1OC	active: 10 µM	
O=C(CSc1cccc[n+]1[O-])c1ccc(Cl)s1	active: 1.3 µM	
COc1cc(N)c(Cl)cc1C(=O)OCC(=O)NCC1CCCCC1	inconclusive [inhibitor, single point]	
CC(C)c1cc(=O)n2c(nc3ccccc32)[nH]1	inconclusive [inhibitor, single point]	
CC(=O)c1ccc(NC(=O)CN2C(=O)c3cccnc3Sc3ccccc32)cc1	inconclusive [inhibitor, partial curve, poor fit]	
O=C(CN1CCCCCCC1)Nc1cc(Cl)cc(Cl)c1	inconclusive [inhibitor, single point]	
CC(=O)Nc1ccc(NC(=O)c2ccc(S(=O)(=O)N3CCCCCC3)cc2)cc1		inactive: -16.1%
CCc1ccc(NC(=O)CSc2nc(=O)n(Cc3cccnc3)c3c2CCC3)cc1	active: 16.4 µM	
O=C(CSc1ccc2nnc(-c3ccccc3)n2n1)N1CCCCC1	inconclusive [inhibitor, partial curve]	
C=C(C)COc1ccc(-c2n[nH]c(C)c2-c2ccc(OC)cc2)c(O)c1	inconclusive [inhibitor, single point]	
COCCNc1nnc(SCC(=O)c2ccc3c(c2)OCO3)s1		inactive: -16.7%
COc1cc(C(=O)NCC(c2ccc(N(C)C)cc2)N2CCCC2)cc(OC)c1OC (stereo not given)	inconclusive [inhibitor, single point]	
CCOc1ccc(NC(=O)CSc2nc3nc(C)c(Cc4ccccc4)c(C)n3n2)cc1	inconclusive [inhibitor, single point]	
COC(=O)C1=C(C)n2cnnc2NC1c1ccc(Cl)cc1 (stereo not given)		inactive: 2.7%
COc1ccc(N2CCN(S(=O)(=O)c3cc(-c4cc(C)no4)ccc3C(C)C)CC2)cc1	inconclusive [inhibitor, single point]	
O=S(=O)(CS(=O)(=O)c1ccc(Cl)cc1)c1ccc(Cl)cc1		inactive: -7.59%
CCOc1cc(/C=N/NC(=O)CN2CCOCC2)ccc1OCc1ccc(Cl)cc1	inconclusive [inhibitor, single point]	
COc1ccc(CNC(=O)COC(=O)/C=C/c2ccc(S(=O)(=O)N3CCOCC3)cc2)cc1	inconclusive [inhibitor, single point]	
CCc1ccccc1NC(=O)CSc1nc2c(oc3ccccc32)c(=O)n1-c1ccccc1	active: 18.4 µM	
COc1ccc(C(=O)N2CC(=O)Nc3ccccc32)cc1S(=O)(=O)N1CCCC1	inconclusive [inhibitor, single point]	
Cc1c(C(=O)NC(C)CCc2ccccc2)cccc1[N+](=O)[O-] (stereo not given)	inconclusive [inhibitor, single point]	

Structure (SMILES)	Potency	activity change, negative = growth inhibition
O=C(NCc1ccccc1F)C(c1ccccc1)c1ccccc1		inactive: -6.13%
O=C(CCc1nnc(CCc2c[nH]c3ccccc23)o1)NC1CCC1	inconclusive [inhibitor, single point]	
Cc1cc2oc(=O)cc(COC(=O)c3n[nH]c4ccccc34)c2cc1C	inconclusive [inhibitor, single point]	
O=S(=O)(NCCCN1CCOCC1)c1ccc2ccccc2c1		inactive: -15.7%
O=C(COc1ccccc1F)NC1CC(=O)N(c2ccc3c(c2)OCCO3)C1 (stereo not given)		inactive: -5.65%
Cc1ccccc1C(=O)N(C)[C@H]1C[C@H]2c3[nH]c4ccccc4c3CCN2C[C@H]1[C@H](C)O	inconclusive [inhibitor, single point]	
CCCc1cc(=O)[nH]c(SCC(=O)c2cc(C)n(CC3CCCO3)c2C)n1 (stereo not given)	inconclusive [inhibitor, single point]	
CC(C)S(=O)(=O)NC(=O)C1(C)CCN1C(=O)Cc1ccccc1 (stereo not given)		inactive: -10.9%
O=C1CCC/C1=C/Nc1ccc(Cl)cc1	inconclusive [inhibitor, single point]	
CC(=O)Nc1cc(-c2cccc(NS(C)(=O)=O)c2)cn2c(-c3cccc(C(C)=O)c3)cnc12	active: 18.4 µM	
CSc1ccc(NC(=O)C2(C)CCN2C(=O)C2(c3ccccc3)CC2)cc1 (stereo not given)	inconclusive [inhibitor, single point]	
N#C/C(=C(/O)COC(=O)c1ccccc1O)c1nc2ccccc2s1	active: 16.4 µM	
O=C(C[C@H]1CC[C@@H](NC(=O)Cc2cccnc2)[C@@H](CO)O1)NCc1ccc2c(c1)OCO2		inactive: 5.67%
COc1ccccc1-c1cccc([C@@H]2C[C@H]3[C@H](CON3C)CN2Cc2cc(Cl)cc(Cl)c2)c1	inconclusive [inhibitor, single point]	
COc1cc(Cl)c(C)cc1Nc1nc2ccccc2nc1NS(=O)(=O)c1ccccc1		inactive: -26.9%
CCOc1ccc(N=C(NN)c2ccc3ccccc3n2)cc1	inconclusive [inhibitor, single point]	
COc1ccccc1CNC(=O)Nc1cccs1	inconclusive [inhibitor, single point]	
COc1ccc(C2/C=C\CN(CC3CC3)CC(=O)N2Cc2ccc(F)cc2)cc1 (stereo not given)	inconclusive [inhibitor, single point]	
C=CC[n+]1c(/C=C/c2ccc(OC(C)=O)c(OC)c2)ccc2ccccc21	active: 11.6 µM	
Cc1cc2nc(-c3ccc(C#N)cc3)c(Cc3cccc(F)c3)n2c(C)c1Br	active: 14.6 µM	
COc1ccc(C(=O)Nc2ccc(NC(=O)c3cccc(OC)c3)cn2)cc1		inactive: -16.2%
CC(O)(c1cccnc1)c1nc(-c2ccc(F)c(Cl)c2)cs1 (stereo not given)	inconclusive [inhibitor, single point]	
